No constants are given. Whether binding was seen depends on the method and setting. Binding seen in cells or lysates may run through a third protein. Some binding calls cover weakened binding; strength is not graded here. For some assays here: Sequences can lack the tags named with a protein. Each block holds one substance with its values, some of them ahead of it.
Assays:
FLAG-Riz1C = molecular target: T1, FLAG-Riz1C (UniProt Q13029); assay: co-IP; HeLa cells co-transfected with FLAG-Riz1C or FLAG-Riz1ΔC and DBD-PR-Set7 or DBD-G9aC; FLAG-immunoprecipitation; Western analysis (Figure 2D)
T1 sequence: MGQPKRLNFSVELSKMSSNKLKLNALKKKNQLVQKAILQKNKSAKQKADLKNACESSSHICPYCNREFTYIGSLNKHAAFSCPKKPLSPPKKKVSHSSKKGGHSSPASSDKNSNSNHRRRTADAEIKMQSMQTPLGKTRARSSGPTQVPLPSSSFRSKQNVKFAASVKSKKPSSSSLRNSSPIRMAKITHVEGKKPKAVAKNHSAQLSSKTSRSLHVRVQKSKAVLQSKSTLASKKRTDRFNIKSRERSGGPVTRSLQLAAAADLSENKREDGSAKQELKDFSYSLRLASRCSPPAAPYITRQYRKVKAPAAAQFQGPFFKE

Amino acid sequences for entries named in this document (tags omitted). A change or cut given only in a name is not applied to a line headed by its entry.
UniProt Q96KQ7: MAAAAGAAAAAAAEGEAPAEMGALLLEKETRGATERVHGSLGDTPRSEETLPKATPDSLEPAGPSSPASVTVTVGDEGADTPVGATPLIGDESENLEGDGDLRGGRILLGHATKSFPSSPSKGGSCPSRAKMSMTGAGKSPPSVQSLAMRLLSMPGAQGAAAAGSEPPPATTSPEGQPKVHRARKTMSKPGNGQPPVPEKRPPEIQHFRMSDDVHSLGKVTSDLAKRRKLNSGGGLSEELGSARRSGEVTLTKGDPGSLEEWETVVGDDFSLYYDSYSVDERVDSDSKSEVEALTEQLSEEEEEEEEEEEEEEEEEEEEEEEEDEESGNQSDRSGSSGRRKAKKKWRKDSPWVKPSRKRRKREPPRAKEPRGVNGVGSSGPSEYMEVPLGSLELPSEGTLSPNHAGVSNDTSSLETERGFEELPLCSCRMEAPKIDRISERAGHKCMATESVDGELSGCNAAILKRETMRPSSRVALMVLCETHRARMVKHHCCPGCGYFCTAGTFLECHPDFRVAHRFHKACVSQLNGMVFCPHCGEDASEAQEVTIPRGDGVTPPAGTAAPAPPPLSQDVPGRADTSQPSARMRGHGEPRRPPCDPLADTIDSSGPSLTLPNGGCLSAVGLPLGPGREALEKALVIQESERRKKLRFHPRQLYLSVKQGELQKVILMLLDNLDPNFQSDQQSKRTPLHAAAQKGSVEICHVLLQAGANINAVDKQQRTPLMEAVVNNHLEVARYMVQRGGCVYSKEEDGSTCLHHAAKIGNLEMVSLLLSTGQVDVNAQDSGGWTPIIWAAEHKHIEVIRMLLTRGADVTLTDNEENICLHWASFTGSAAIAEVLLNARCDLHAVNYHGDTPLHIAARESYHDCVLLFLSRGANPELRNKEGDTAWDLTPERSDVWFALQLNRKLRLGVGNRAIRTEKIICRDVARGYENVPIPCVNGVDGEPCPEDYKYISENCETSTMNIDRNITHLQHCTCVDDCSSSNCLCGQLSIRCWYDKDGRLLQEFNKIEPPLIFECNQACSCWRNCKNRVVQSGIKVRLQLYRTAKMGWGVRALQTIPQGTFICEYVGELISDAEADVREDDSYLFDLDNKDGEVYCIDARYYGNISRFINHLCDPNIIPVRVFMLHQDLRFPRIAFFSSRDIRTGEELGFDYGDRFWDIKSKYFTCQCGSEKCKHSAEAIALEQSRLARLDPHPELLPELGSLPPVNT

HA-p53 [1] = molecular target: HA-p53 (UniProt P04637); assay: co-IP; HeLa cells co-transfected; nuclear pellet in IP lysis buffer (50 mM Tris-HCl pH 7.0, 150 mM NaCl, 0.5 mM DTT, 1% NP-40); FLAG- or HA-conjugated beads; Western analysis (Figure 1B)
HA-PR-Set7 [2] = molecular target: T2, HA-PR-Set7 (UniProt Q9NQR1); assay: as above
T2 sequence: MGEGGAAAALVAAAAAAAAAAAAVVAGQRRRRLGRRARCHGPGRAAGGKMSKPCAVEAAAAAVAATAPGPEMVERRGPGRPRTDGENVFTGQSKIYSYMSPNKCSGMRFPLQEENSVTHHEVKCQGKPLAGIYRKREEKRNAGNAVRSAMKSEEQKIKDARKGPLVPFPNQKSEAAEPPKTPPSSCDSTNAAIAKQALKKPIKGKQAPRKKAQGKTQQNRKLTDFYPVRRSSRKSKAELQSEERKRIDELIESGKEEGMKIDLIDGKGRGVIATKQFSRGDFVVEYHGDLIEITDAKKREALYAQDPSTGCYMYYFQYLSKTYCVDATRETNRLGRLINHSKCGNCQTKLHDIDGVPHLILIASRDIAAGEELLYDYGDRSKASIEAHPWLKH

FLAG-PR-Set7 = molecular target: T3, FLAG-PR-Set7 (UniProt Q9NQR1); assay: co-IP; HeLa or HCT116 cells transfected with FLAG-PR-Set7 or FLAG-GFP; FLAG-immunoprecipitation; Western analysis of endogenous Riz1 (Figure 6B)
T3 sequence: T2 sequence

His-S-PR-Set7 = molecular target: T4, His-S-PR-Set7 (UniProt Q9NQR1); assay: pull-down; S-tag-immunoprecipitation of recombinant His-S-PR-Set7 incubated in vitro with in vitro translated 35S-Riz1 or 35S-G9a; autoradiography (Figure 1D); only the target purified
T4 sequence: T2 sequence

HA-p53 [3] = molecular target: HA-p53 (UniProt P04637); assay: co-IP; HA-immunoprecipitation of HeLa nuclear extracts expressing HA-PR-Set7 or HA-p53 incubated with in vitro translated 35S-Riz1; SDS-PAGE, autoradiography (Figure 1C)
HA-PR-Set7 [4] = molecular target: T2, HA-PR-Set7; assay: as above

Substance: ectopic full-length Riz1 (from UniProt Q13029-1 1-1718)
binding (HA-p53 [1]): no binding
binding (HA-PR-Set7 [2]): binds

Substance: endogenous wild-type Riz1 (from UniProt Q13029-1 1-1718)
binding (FLAG-PR-Set7): binds

Substance: in vitro translated 35S-G9a (from UniProt Q96KQ7 1-1210)
binding (His-S-PR-Set7): no binding

The remaining lines, values ahead:

binding (FLAG-Riz1C): no binding
Substance: DBD-G9aC (SET domain) (from UniProt Q96KQ7 1038-1155) (domain or fragment)

binding (His-S-PR-Set7): binds
binding (HA-p53 [3]): no binding
binding (HA-PR-Set7 [4]): binds
Substance: in vitro translated 35S-Riz1 (from UniProt Q13029-1 1-1718)
